The results in this text go back to PMC3926831.

Protein sequences, listed by entry. Tags and fused reporters are not part of them. Lines headed by an entry give the natural chain unless they say otherwise; changes in a name come on top. Chains listed by the source or under a name are the forms on record and can include a tag or linker.
Flag-β-TRCP1-R474A (Q9Y297, form named): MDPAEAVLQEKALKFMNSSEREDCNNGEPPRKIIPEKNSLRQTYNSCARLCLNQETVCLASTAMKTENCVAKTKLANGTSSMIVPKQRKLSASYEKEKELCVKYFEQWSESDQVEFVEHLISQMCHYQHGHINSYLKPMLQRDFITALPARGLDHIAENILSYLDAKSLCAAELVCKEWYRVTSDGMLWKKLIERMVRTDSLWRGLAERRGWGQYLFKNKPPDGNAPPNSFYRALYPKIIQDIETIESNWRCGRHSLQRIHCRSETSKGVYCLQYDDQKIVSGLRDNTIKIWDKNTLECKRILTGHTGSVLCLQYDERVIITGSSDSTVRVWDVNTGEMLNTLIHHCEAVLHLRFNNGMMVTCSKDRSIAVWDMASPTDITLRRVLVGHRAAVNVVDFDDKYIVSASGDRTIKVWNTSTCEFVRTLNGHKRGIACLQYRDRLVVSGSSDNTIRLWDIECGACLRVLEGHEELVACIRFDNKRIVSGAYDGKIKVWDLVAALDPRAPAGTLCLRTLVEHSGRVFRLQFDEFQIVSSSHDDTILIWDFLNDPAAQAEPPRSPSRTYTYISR
Flag-β-TRCP1 (wild type) (Q9Y297, form named): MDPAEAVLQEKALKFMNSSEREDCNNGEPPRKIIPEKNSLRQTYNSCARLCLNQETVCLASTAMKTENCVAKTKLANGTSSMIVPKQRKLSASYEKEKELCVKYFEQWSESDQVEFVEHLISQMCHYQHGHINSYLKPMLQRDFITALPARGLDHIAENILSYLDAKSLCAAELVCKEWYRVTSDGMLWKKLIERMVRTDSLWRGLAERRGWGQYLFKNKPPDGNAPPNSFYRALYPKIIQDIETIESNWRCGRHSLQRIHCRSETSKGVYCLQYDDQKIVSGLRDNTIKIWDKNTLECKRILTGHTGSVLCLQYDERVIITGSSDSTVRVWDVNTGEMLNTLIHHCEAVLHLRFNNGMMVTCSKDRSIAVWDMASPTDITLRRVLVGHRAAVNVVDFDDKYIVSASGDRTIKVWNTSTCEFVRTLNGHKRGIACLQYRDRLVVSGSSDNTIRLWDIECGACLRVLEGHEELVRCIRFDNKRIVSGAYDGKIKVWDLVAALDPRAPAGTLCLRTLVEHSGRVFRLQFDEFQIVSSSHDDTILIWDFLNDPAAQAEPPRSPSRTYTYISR
UniProt Q13619: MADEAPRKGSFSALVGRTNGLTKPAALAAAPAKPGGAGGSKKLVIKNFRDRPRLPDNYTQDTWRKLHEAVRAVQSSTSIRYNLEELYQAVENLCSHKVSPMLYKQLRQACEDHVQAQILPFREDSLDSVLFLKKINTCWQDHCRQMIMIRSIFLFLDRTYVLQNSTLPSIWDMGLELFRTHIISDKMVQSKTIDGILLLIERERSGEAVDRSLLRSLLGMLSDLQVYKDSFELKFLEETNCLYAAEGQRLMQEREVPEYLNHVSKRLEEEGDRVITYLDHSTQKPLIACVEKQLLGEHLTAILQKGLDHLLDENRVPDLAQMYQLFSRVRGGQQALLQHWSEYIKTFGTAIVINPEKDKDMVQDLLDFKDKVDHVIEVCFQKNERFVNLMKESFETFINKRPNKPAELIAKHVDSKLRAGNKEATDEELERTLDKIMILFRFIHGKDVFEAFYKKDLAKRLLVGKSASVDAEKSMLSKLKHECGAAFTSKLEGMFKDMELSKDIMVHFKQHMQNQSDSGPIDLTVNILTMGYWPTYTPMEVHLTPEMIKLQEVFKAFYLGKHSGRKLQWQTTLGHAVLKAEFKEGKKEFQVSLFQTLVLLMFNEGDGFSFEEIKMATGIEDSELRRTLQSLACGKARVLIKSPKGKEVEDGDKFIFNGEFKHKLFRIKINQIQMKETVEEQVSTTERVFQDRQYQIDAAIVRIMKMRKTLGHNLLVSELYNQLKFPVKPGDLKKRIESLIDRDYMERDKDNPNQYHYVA
UniProt Q13617: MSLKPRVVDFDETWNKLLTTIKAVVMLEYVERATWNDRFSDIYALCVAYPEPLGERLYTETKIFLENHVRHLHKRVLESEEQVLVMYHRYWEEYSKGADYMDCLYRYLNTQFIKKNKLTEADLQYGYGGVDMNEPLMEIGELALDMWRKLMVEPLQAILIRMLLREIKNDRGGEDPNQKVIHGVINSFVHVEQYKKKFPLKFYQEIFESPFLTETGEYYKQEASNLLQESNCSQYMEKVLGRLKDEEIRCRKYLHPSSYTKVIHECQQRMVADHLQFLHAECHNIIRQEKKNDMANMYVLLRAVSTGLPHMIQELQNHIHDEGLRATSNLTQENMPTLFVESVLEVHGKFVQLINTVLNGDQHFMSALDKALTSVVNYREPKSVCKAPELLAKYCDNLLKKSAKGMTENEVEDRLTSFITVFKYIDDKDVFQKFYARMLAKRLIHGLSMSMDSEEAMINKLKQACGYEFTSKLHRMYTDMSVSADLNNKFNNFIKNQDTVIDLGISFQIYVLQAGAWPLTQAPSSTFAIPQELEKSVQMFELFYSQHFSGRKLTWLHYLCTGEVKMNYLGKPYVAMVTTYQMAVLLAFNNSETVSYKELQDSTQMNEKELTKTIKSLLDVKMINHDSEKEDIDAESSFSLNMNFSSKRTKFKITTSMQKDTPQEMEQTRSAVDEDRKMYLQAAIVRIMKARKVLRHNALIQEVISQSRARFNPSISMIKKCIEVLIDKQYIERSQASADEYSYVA
UniProt Q93034: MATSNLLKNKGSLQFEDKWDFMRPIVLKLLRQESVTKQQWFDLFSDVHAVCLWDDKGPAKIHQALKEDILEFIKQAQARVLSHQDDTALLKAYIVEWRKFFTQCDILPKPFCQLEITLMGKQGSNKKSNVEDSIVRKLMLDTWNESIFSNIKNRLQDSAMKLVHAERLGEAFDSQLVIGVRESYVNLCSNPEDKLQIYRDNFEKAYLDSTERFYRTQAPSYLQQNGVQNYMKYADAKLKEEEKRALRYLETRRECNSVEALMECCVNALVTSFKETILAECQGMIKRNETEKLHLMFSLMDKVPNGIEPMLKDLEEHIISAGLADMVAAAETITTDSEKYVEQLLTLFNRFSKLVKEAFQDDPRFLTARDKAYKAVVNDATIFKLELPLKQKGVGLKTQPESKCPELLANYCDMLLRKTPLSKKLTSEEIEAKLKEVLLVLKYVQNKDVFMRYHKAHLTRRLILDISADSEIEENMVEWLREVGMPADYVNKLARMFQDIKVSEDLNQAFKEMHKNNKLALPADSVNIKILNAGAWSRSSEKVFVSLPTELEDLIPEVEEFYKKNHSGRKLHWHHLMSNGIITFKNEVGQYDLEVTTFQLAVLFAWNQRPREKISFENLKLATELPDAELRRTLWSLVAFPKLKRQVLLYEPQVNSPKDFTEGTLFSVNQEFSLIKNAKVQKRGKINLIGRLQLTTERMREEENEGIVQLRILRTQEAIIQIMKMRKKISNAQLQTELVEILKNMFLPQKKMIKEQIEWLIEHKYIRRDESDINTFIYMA
UniProt Q13616: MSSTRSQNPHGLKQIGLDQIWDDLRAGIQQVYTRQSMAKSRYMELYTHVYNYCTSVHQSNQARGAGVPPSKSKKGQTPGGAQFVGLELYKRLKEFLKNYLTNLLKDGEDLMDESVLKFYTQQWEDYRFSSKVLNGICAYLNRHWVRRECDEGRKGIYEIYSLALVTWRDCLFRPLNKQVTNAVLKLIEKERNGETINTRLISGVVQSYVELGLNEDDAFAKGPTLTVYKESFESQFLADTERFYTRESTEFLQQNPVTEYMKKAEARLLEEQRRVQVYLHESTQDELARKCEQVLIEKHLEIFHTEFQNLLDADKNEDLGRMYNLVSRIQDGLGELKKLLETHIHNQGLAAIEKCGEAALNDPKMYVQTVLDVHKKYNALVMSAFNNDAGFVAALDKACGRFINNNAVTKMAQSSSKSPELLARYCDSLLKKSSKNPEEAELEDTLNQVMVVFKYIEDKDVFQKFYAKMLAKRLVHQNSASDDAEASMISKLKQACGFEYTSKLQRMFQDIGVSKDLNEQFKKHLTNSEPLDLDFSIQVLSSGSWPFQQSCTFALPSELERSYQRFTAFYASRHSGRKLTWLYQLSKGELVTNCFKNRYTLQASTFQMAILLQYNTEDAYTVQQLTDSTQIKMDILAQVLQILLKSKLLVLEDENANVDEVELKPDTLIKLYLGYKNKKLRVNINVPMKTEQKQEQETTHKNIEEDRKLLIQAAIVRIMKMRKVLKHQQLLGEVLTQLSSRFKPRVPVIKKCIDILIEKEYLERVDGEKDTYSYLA

No constants are given. Whether binding was seen depends on the method and setting. Binding seen in cells or lysates may run through a third protein. Some binding calls cover weakened binding; strength is not graded here. For some assays here: Sequences can lack the tags named with a protein.

The target in one assay is Flag-β-TRCP1-R474A (UniProt Q9Y297). Put plainly: co-IP; 293T cells transfected with a tagged construct (Myc-Cullins or Flag-β-TRCP1 WT/R474A) or empty vector; endogenous MTSS1 blotted; 10 μM MG132 overnight before harvest; EBC lysis buffer (50 mM Tris pH 8.0, 120 mM NaCl, 0.5% NP-40); antibody overnight at 4 °C; five washes with NETN buffer.
Assay [1] concerns the target Flag-β-TRCP1 (wild type) (UniProt Q9Y297). The description is as above.
A further assay concerns the target Myc-Cullin 4A (UniProt Q13619). The assay is described as above.
For another assay, the target named is Myc-Cullin 3 (UniProt Q13618). The assay is described as above.
In another assay the target is Myc-Cullin 2 (UniProt Q13617). The description is as above.
A further assay deals with Myc-Cullin 5 (UniProt Q93034). The assay is described as above.
The target in assay [2] is Myc-Cullin 1 (UniProt Q13616). The assay is described as above.
Assay [3] addresses Flag-β-TRCP1 (wild type) (UniProt Q9Y297). Description: co-IP; 293T cells co-transfected with both tagged partners; 10 μM MG132 overnight before harvest; EBC lysis buffer; five washes with NETN buffer; for Myc-MTSS1 with Flag-β-TRCP1 lysates were also pre-treated with λ-phosphatase before the IP.
For assay [4] the target is unchanged. Description: co-IP; HeLa cells co-transfected with Flag-β-TRCP1 and Myc-MTSS1 (WT or S322A); also in HeLa lines infected with shGFP, shCKIδ-A or shCKIδ-B; 10 μM MG132 overnight before harvest; EBC lysis buffer; five washes with NETN buffer.
The target in assay [5] is Myc-Cullin 1 (UniProt Q13616). Put plainly: co-IP; Cullin constructs with ectopically expressed MTSS1 (Supplementary Figure S1A); cells and tags not shown.

B1: Metastasis suppressor 1 (MTSS1), endogenous (protein, UniProt O43312 1-755)
chain: MEAVIEKECSALGGLFQTIISDMKGSYPVWEDFINKAGKLQSQLRTTVVAAAAFLDAFQKVADMATNTRGGTREIGSALTRMCMRHRSIEAKLRQFSSALIDCLINPLQEQMEEWKKVANQLDKDHAKEYKKARQEIKKKSSDTLKLQKKAKKGRGDIQPQLDSALQDVNDKYLLLEETEKQAVRKALIEERGRFCTFISMLRPVIEEEISMLGEITHLQTISEDLKSLTMDPHKLPSSSEQVILDLKGSDYSWSYQTPPSSPSTTMSRKSSVCSSLNSVNSSDSRSSGSHSHSPSSHYRYRSSNLAQQAPVRLSSVSSHDSGFISQDAFQSKSPSPMPPEAPNQLSNGFSHYSLSSESHVGPTGAGLFPHCLPASRLLPRVTSVHLPDYAHYYTIGPGMFPSSQIPSWKDWAKPGPYDQPLVNTLQRRKEKREPDPNGGGPTTASGPPAAAEEAQRPRSMTVSAATRPGEEMEACEELALALSRGLQLDTQRSSRDSLQCSSGYSTQTTTPCCSEDTIPSQVSDYDYFSVSGDQEADQQEFDKSSTIPRNSDISQSYRRMFQAKRPASTAGLPTTLGPAMVTPGVATIRRTPSTKPSVRRGTIGAGPIPIKTPVIPVKTPTVPDLPGVLPAPPDGPEERGEHSPESPSVGEGPQGVTSMPSSMWSGQASVNPPLPGPKPSIPEEHRQAIPESEAEDQEREPPSATVSPGQIPESDPADLSPRDTPQGEDMLNAIRRGVKLKKTTTNDRSAPRFS
Turning to B1, the binding result with Flag-β-TRCP1-R474A was “no binding”; in the assay with Flag-β-TRCP1 (wild type) [1], “binds”; in the assay with Myc-Cullin 4A, “no binding”; in the assay with Myc-Cullin 3, “no binding”; with Myc-Cullin 2, “no binding”; in the assay with Myc-Cullin 5, “no binding”. Also, the binding result in the assay with Myc-Cullin 1 [2] is given as “binds”.

B2: Myc-MTSS1 (wild type) (protein, UniProt O43312 1-755)
chain: MEAVIEKECSALGGLFQTIISDMKGSYPVWEDFINKAGKLQSQLRTTVVAAAAFLDAFQKVADMATNTRGGTREIGSALTRMCMRHRSIEAKLRQFSSALIDCLINPLQEQMEEWKKVANQLDKDHAKEYKKARQEIKKKSSDTLKLQKKAKKGRGDIQPQLDSALQDVNDKYLLLEETEKQAVRKALIEERGRFCTFISMLRPVIEEEISMLGEITHLQTISEDLKSLTMDPHKLPSSSEQVILDLKGSDYSWSYQTPPSSPSTTMSRKSSVCSSLNSVNSSDSRSSGSHSHSPSSHYRYRSSNLAQQAPVRLSSVSSHDSGFISQDAFQSKSPSPMPPEAPNQLSNGFSHYSLSSESHVGPTGAGLFPHCLPASRLLPRVTSVHLPDYAHYYTIGPGMFPSSQIPSWKDWAKPGPYDQPLVNTLQRRKEKREPDPNGGGPTTASGPPAAAEEAQRPRSMTVSAATRPGEEMEACEELALALSRGLQLDTQRSSRDSLQCSSGYSTQTTTPCCSEDTIPSQVSDYDYFSVSGDQEADQQEFDKSSTIPRNSDISQSYRRMFQAKRPASTAGLPTTLGPAMVTPGVATIRRTPSTKPSVRRGTIGAGPIPIKTPVIPVKTPTVPDLPGVLPAPPDGPEERGEHSPESPSVGEGPQGVTSMPSSMWSGQASVNPPLPGPKPSIPEEHRQAIPESEAEDQEREPPSATVSPGQIPESDPADLSPRDTPQGEDMLNAIRRGVKLKKTTTNDRSAPRFS
For B2, the binding entry with Flag-β-TRCP1 (wild type) [3] and with Flag-β-TRCP1 (wild type) [4] was “binds” throughout.

B3: ectopically expressed MTSS1 (Supplementary Figure S1A) (protein, UniProt O43312 1-755)
chain: MEAVIEKECSALGGLFQTIISDMKGSYPVWEDFINKAGKLQSQLRTTVVAAAAFLDAFQKVADMATNTRGGTREIGSALTRMCMRHRSIEAKLRQFSSALIDCLINPLQEQMEEWKKVANQLDKDHAKEYKKARQEIKKKSSDTLKLQKKAKKGRGDIQPQLDSALQDVNDKYLLLEETEKQAVRKALIEERGRFCTFISMLRPVIEEEISMLGEITHLQTISEDLKSLTMDPHKLPSSSEQVILDLKGSDYSWSYQTPPSSPSTTMSRKSSVCSSLNSVNSSDSRSSGSHSHSPSSHYRYRSSNLAQQAPVRLSSVSSHDSGFISQDAFQSKSPSPMPPEAPNQLSNGFSHYSLSSESHVGPTGAGLFPHCLPASRLLPRVTSVHLPDYAHYYTIGPGMFPSSQIPSWKDWAKPGPYDQPLVNTLQRRKEKREPDPNGGGPTTASGPPAAAEEAQRPRSMTVSAATRPGEEMEACEELALALSRGLQLDTQRSSRDSLQCSSGYSTQTTTPCCSEDTIPSQVSDYDYFSVSGDQEADQQEFDKSSTIPRNSDISQSYRRMFQAKRPASTAGLPTTLGPAMVTPGVATIRRTPSTKPSVRRGTIGAGPIPIKTPVIPVKTPTVPDLPGVLPAPPDGPEERGEHSPESPSVGEGPQGVTSMPSSMWSGQASVNPPLPGPKPSIPEEHRQAIPESEAEDQEREPPSATVSPGQIPESDPADLSPRDTPQGEDMLNAIRRGVKLKKTTTNDRSAPRFS
For the molecule B3, the binding entry with Myc-Cullin 1 [5] is “binds”.

B4: Myc-S322A-MTSS1 (protein, UniProt O43312 1-755)
chain: MEAVIEKECSALGGLFQTIISDMKGSYPVWEDFINKAGKLQSQLRTTVVAAAAFLDAFQKVADMATNTRGGTREIGSALTRMCMRHRSIEAKLRQFSSALIDCLINPLQEQMEEWKKVANQLDKDHAKEYKKARQEIKKKSSDTLKLQKKAKKGRGDIQPQLDSALQDVNDKYLLLEETEKQAVRKALIEERGRFCTFISMLRPVIEEEISMLGEITHLQTISEDLKSLTMDPHKLPSSSEQVILDLKGSDYSWSYQTPPSSPSTTMSRKSSVCSSLNSVNSSDSRSSGSHSHSPSSHYRYRSSNLAQQAPVRLSSVSSHDAGFISQDAFQSKSPSPMPPEAPNQLSNGFSHYSLSSESHVGPTGAGLFPHCLPASRLLPRVTSVHLPDYAHYYTIGPGMFPSSQIPSWKDWAKPGPYDQPLVNTLQRRKEKREPDPNGGGPTTASGPPAAAEEAQRPRSMTVSAATRPGEEMEACEELALALSRGLQLDTQRSSRDSLQCSSGYSTQTTTPCCSEDTIPSQVSDYDYFSVSGDQEADQQEFDKSSTIPRNSDISQSYRRMFQAKRPASTAGLPTTLGPAMVTPGVATIRRTPSTKPSVRRGTIGAGPIPIKTPVIPVKTPTVPDLPGVLPAPPDGPEERGEHSPESPSVGEGPQGVTSMPSSMWSGQASVNPPLPGPKPSIPEEHRQAIPESEAEDQEREPPSATVSPGQIPESDPADLSPRDTPQGEDMLNAIRRGVKLKKTTTNDRSAPRFS
With B4, the binding result with Flag-β-TRCP1 (wild type) [4] is “no binding”.
